Reference: PMC12136788
The list shows a part of the results.

B1: chr11:107358869:107358870:+_ENSMUSG00000020720_ENSMUST00000021063|mus_mus|motif|central (ssRNA)
RNA: GGGAGUUCUACAGUCCGACGAUCUCUCUGGAAGUUGAUGACUCCAGCCAACCUGUCUACUUUAGCAAAGAUGGUCUUGUUAACGACGGGAUUCGAGAGGAAAGCCUCUGACUCAUCCACAGAGAGAUCCAGAAGUUGUGCCAUCAACAGAGGAUUGAGCAUCA
B2: chr6:38654746:38654747:-_ENSG00000124767_ENST00000373365|hu_mus|FALSE|FALSE (ssRNA)
RNA: GGGAGUUCUACAGUCCGACGAUCAAAAUCCAGGGACUUCUUAGGAUCCUUAAUUCUUAGCAUCGUUUGCUGCAGUAGAAAAUCCUUGGUGCUAGGGUCUGGAUCGGAGCAGCAGCUGAAAGCGGUCUCAUCAGUGAGGCCACUCAACAGAGGAUUGAGCAUCA
B3: chr2:201681052:201681053:+_ENSG00000082153_ENST00000409600|hu_mus|FALSE|FALSE (ssRNA)
RNA: GGGAGUUCUACAGUCCGACGAUCUUUAACUUCAUCUUCAAAACCUUUCUCCAGGUAUUUGUAGCGCCUGAUUAGCUUGUUAAAAACCUGAGCGAAUGCUUGCAUGGUCUCUAGGUCUUCUUGUGCUGCGAACACACAGACAUCCAACAGAGGAUUGAGCAUCA
B4: chr2:216981417:216981418:+_ENSG00000079246_ENST00000392132|hu_hu|hu_hu_hu_mus_True|18_48 (ssRNA)
RNA: GGGAGUUCUACAGUCCGACGAUCCUGAUACUGGUCCUUGCCAGCAAGGGCAUUAUCAGUGCCAUCUGUGCCAUAGAGGACUAACGCAAUCUCAUCCUUGCUCUCCGAAAAUACCUGUCGCUGUACAAACAUAGUCAUCACUUUCAACAGAGGAUUGAGCAUCA
B5: chr13:21488354:21488355:-_ENSMUSG00000021327_ENSMUST00000070785|mus_mus|FALSE|FALSE (ssRNA)
RNA: GGGAGUUCUACAGUCCGACGAUCUUGUUCCACCUUUAUGACCAGUAGCUCCAUCUGGUCCUCUGCAGAGUGUGAGUCCAAGGUUGUGCUUUCCCUUGAUUCUCUAGCCAUCCCGAACCAAGCAGUUCUCCCGUUUCACUGUAGCAACAGAGGAUUGAGCAUCA
B6: chr15:59323432:59323433:+_ENSG00000157450_ENST00000557998|hu_mus|FALSE|FALSE (ssRNA)
RNA: GGGAGUUCUACAGUCCGACGAUCCACUGUAUCAGAGCCCCCAAAAUGGAGACUAGAUGAGGGAGAAGACAGACACUCACUUAAGGAAGAGUCAUUAUCCUCAUCACUCGGUGUCUCUAGCUGUUGUCUGCGCCCUAGGAUUUCCAACAGAGGAUUGAGCAUCA
B7: chr13:41369856:41369857:+_ENSMUSG00000091264_ENSMUST00000165561|mus_mus|motif|central (ssRNA)
RNA: GGGAGUUCUACAGUCCGACGAUCUUGGCCUUGAAGCUCAUUUCCCGUAUGGAGCAGACAACACUAGAAGGUUCAUCAGUCGGUCACUUCUCUAGUUAACAGUCCAAAGUUCGGGUAGAACAAACAUGGACUCCUGGCAAGAGGCAACAGAGGAUUGAGCAUCA
B8: chr1:163116782:163116783:-_ENSG00000143248_ENST00000313961|hu_mus|motif|central (ssRNA)
RNA: GGGAGUUCUACAGUCCGACGAUCCCAUGAAAGGGGACACUUGCAUCUGUUUUUCUUUUCAGCCUGGUUAAAAUAGCAGUCGGUCACCUAUUCUUUGCACAGACAGCUUUAUGUUAAACUGGAUAUUUUUGUGACUUAGACUGACAACAGAGGAUUGAGCAUCA
B9: 130225066_130225186_396_CDS_ENSMUSG00000028580_ENSMUST00000105991|mouse|control|control (ssRNA)
RNA: GGGAGUUCUACAGUCCGACGAUCUGUAGGCCAUCGAUGUUUGCUAGUAUUAUAGCCGCCUCCACCACUUCCUCCUCCCCCAAGCUGCUCACCAUGCUGCCUCUGAAAGAAGUAGUCCACCAUAGCGUCGUCCUGGGAACGGCCCAACAGAGGAUUGAGCAUCA
B10: chr6:114281168:114281169:-_ENSG00000196591_ENST00000368632|hu_hu|hu_hu_hu_mus_True|38_98 (ssRNA)
RNA: GGGAGUUCUACAGUCCGACGAUCUUCCAUUUUUCGGUAUAAGCCAUAAUUUAGCAGCAAGUUAUGAGUCAUCCGGAUUCUAUGAGGCUUCAUGGGAUGACCCUGUCCAUAAUAAUAAUUGCCAAUAUCACCAUCAUAGUAGUACAACAGAGGAUUGAGCAUCA
B11: chr14:102036314:102036315:-_ENSMUSG00000075486_ENSMUST00000100339|mus_hu|motif|central (ssRNA)
RNA: GGGAGUUCUACAGUCCGACGAUCCUUAAGAGAUCUGCAAGUGUCUGAGCUCACAGCCAUACCCAGUUUCCACUGAAAAUCGGCAAGCUGGUUGGUGACAUCGGACUUAGCAUCCAGCGGCGGCUCGCUGGACGCCUCCAUGGGCAACAGAGGAUUGAGCAUCA
B12: chr2:166753246:166753247:+_ENSMUSG00000002718_ENSMUST00000002790|mus_hu|FALSE|FALSE (ssRNA)
RNA: GGGAGUUCUACAGUCCGACGAUCAAAUAGAUUCUUAUAAUGAGGUCUCUCACAAACUGAAGCCAGAAAUUGAAUUGCAUUACUUACCAACAAAUCAUAUUUAACCUCUUGACCCGUUGUAACUAGUAAAUUCCAGAUGGCUGUCAACAGAGGAUUGAGCAUCA
B13: chr11:77336104:77336105:-_ENSG00000074201_ENST00000525064|hu_mus|hu_hu_hu_mus_False|1_18 (ssRNA)
RNA: GGGAGUUCUACAGUCCGACGAUCCUCACACAUUGCUGUGAACAUCGCCUCCAAUGCUGACUUAUCACUGGGCACAAAUCGAAAUUCAGAAAUGGGUUCAACAUCAUCAUUGUCUUCUUCCUCUUCUUCAGAGAGAGCAGGUUCCAACAGAGGAUUGAGCAUCA
B14: 90420490_90421851_7730_CDS_ENSG00000112159_ENST00000369393|human|control|control (ssRNA)
RNA: GGGAGUUCUACAGUCCGACGAUCUUCCAAAUGAAUUUGUAUGGACUCAAGCCCCUGCGGUAUAUUCUUGGCUAAAUGAUAAAGCCAUUUAACUCUGAGCAUCCAAUCCUGAUUGGUUGCUCUUUCUAUGAGCAAUUUAACAGCCAACAGAGGAUUGAGCAUCA
B15: chr9:95363179:95363180:-_ENSMUSG00000032407_ENSMUST00000079659|mus_hu|FALSE|FALSE (ssRNA)
RNA: GGGAGUUCUACAGUCCGACGAUCUGAUCGCCUAGACCUUUUAGGUGUCCUUGAACCAGAUGGUGAUCUUUUGGCUUUUUUGCUAACAUCUCUAGGAGAAUCUUUGUGAGAUGACCUGGACCGUGAGCUCUCUUUAUGAGAUCUCAACAGAGGAUUGAGCAUCA
B16: chr18:80415450:80415451:+_ENSMUSG00000057130_ENSMUST00000145963|mus_hu|FALSE|FALSE (ssRNA)
RNA: GGGAGUUCUACAGUCCGACGAUCUACAUUUUGUUGAAGUCAGGCACUUCUGUAAUAUCCACAAGAUAAAUAACUGCAAAAUUUUUAACGCCUCUUUCCAGUGGCUCCAGCCUCCAGUGGUGGGUAUCCUCCUUCCAAGGUCAGCAACAGAGGAUUGAGCAUCA
B17: 45676174_45677357_897_CDS_ENSMUSG00000042790_ENSMUST00000161187|mouse|control|control (ssRNA)
RNA: GGGAGUUCUACAGUCCGACGAUCAAAUACUUGAAGCAUGAAAUCUGCCUCUGAGGGUGGUGGAGGCAAAGUUGGGGUAGGGAUCUGAGGAAGGCUGCUCAGCUUGGCUCCAUUCCUCACUAGCUGGAUAUGACUAUUAAACUGCAACAGAGGAUUGAGCAUCA
B18: chr5:21408736:21408737:-_ENSMUSG00000042453_ENSMUST00000161356|mus_hu|mus_mus_mus_hu_False|8_108 (ssRNA)
RNA: GGGAGUUCUACAGUCCGACGAUCGUUGACAGCAUUAUAGAUGGUGGCUUCAUGGAACUGGAAAGGGGAGCAGCCAAUGCUGUUAGAAGAGGAAGGAAGGCACUGGGUCUGUACGAGCUGCCAGGAAUCGGACCUUGCAUCCUUCAACAGAGGAUUGAGCAUCA
B19: chr1:109605286:109605287:-_ENSG00000197780_ENST00000461096|hu_mus|hu_hu_hu_mus_True|18_18 (ssRNA)
RNA: GGGAGUUCUACAGUCCGACGAUCAAGUUUCAGAGUAACAUUCAGUAACCUCUUUAAAUGCAAUUAUCCUUAUUAUAAGCUAAGCAGAAUAAUAAUUUAAUACCGUAAGUGAACUACCACAAAACCUUGAACCGCGAAAAUGGUCAACAGAGGAUUGAGCAUCA
B20: chr10:1038518:1038519:+_ENSG00000107937_ENST00000545048|hu_hu|hu_hu_hu_mus_False|48_108 (ssRNA)
RNA: GGGAGUUCUACAGUCCGACGAUCCAGUCUAUCAUGGUAAUUCUGUUGAGUAAAUUUGACUUUUCUCAUAUAAAAAUGUCGAAUCCGAUGUAUUUGGUAAUGUUUAUGAAUAACCGUUGGAGUCUUUCGUUGAGUCUUGGAUAACAACAGAGGAUUGAGCAUCA
B21: chr13:104551264:104551265:-_ENSMUSG00000032621_ENSMUST00000074616|mus_mus|FALSE|FALSE (ssRNA)
RNA: GGGAGUUCUACAGUCCGACGAUCUCCAAGUGUUGUAAUAUUUGGGUCCAGCGCUGCUGCUGGGAUAGCUCCCAAACUGCUAAGUGAAACACCAAGACUACUCACUGCCGUCAGAGGACUGGAGGUUGGGAUGGGAAGCAACCCCAACAGAGGAUUGAGCAUCA
B22: chrX:71549762:71549763:+_ENSMUSG00000019087_ENSMUST00000019231|mus_mus|mus_mus_mus_hu_False|78_88 (ssRNA)
RNA: GGGAGUUCUACAGUCCGACGAUCAAACCCGUGUACUUCUUAUUGUUACAUCACCCCUCCCCCCCAACGAUAACGACAGCCAAGCAGGACAGACAGUUAAGUAGUACUUCCACACUCCCAAACUCAGGGAGCCCUAUAACCUUACAACAGAGGAUUGAGCAUCA

Molecular target: T1, UNK ZnF1-3 (human, UniProt Q9C0B0 31-174)
T1 sequence: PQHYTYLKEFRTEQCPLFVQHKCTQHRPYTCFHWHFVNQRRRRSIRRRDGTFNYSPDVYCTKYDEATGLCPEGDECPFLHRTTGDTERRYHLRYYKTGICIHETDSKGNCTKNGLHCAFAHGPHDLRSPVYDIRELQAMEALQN
Test: nsRBNS (natural sequence RNA bind-n-seq); RBNS binding buffer (assumed for nsRBNS): 25 mM Tris pH 7.5, 150 mM KCl, 3 mM MgCl2, 0.01% Triton X-100, 500 ug/ml BSA, 20 U/ml SUPERase-In, 4 C; UNK is unkempt and MSI1 is Musashi-1; names of the RNAs are library labels; protein concentration not given here; high values mean tight binding

| Binder | binding signal [enrichment R] |
| --- | --- |
| B1 | 1.02 |
| B2 | 0.704 |
| B3 | 0.484 |
| B4 | 0.836 |
| B5 | 0.707 |
| B6 | 0.988 |
| B7 | 1.06 |
| B8 | 1.01 |
| B9 | 0.883 |
| B10 | 0.946 |
| B11 | 0.706 |
| B12 | 1.31 |
| B13 | 0.97 |
| B14 | 0.738 |
| B15 | 0.388 |
| B16 | 1.15 |
| B17 | 0.819 |
| B18 | 1.81 |
| B19 | 0.713 |
| B20 | 0.543 |
| B21 | 1.28 |
| B22 | 1.83 |
